Scores with a large standard error are left out. Not listed are two conditions whose scores span a narrow range. In variant names, del marks residues removed and ins residues inserted between the two positions. For part of these data: The concentration of ogerin is not given here.
B1: GPR68, Q15743 (parent)
chain: MGNITADNSSMSCTIDHTIHQTLAPVVYVTVLVVGFPANCLSLYFGYLQIKARNELGVYLCNLTVADLFYICSLPFWLQYVLQHDNWSHGDLSCQVCGILLYENIYISVGFLCCISVDRYLAVAHPFRFHQFRTLKAAVGVSVVIWAKELLTSIYFLMHEEVIEDENQHRVCFEHYPIQAWQRAINYYRFLVGFLFPICLLLASYQGILRAVRRSHGTQKSRKDQIQRLVLSTVVIFLACFLPYHVLLLVRSVWEASCDFAKGVFNAYHFSLLLTSFNCVADPVLYCFVSETTHRDLARLRGACLAFLTCSRTGRAREAYPLGAPEASGKSGAQGEEPELLTKLHPAFQTPNSPGSGGFPTGRLA

Columns and labels:
[1] = variants of: B1; assay: cAMP reporter score (Enrich2 score, wild type = 0); higher = more signal; HEK293T, FACS bins
[2] = variants of: B1; assay: surface expression score (Enrich2 score, wild type = 0); higher = more signal; HEK293T, FACS bins

Variant	cAMP reporter score ([1]; pH 6)	cAMP reporter score ([1]; pH 6, modulator: ogerin)	cAMP reporter score ([1]; pH 6.5, modulator: ogerin)	surface expression score [2]	cAMP reporter score ([1]; pH 5.5)
T361G	-0.577	-0.622	-0.459		
T361Q		0.177	-0.343	0.979	
L344_H345insG	1.23	1.6			
V192_G193insGSG		-0.786	-2.41		
V162_I163insGSG	-0.711		0.568		
V96K		-1.2	-1.89	-0.364	
V96E		-0.924	-0.69	-1.68	
C114_I115insG				-0.285	
L297N			-1.68	0.305	
R189_F190del	-0.224	-2.21			
G358F	0.387	0.454	-0.323		
I71D	-1.5		-1.44		
I71E	-0.339	-0.544	-0.999	-2.19	
A365C	1.85	1.57	1.03	-0.219	0.88
A365G	-0.094	0.817	1.09	0.922	0.219
A365Y	-0.072	1.01	0.48	0.52	0.522
A365P	0.923	0.31	-0.149	0.028	-0.347
A365K	0.02	-0.05	-0.006	-0.019	-0.119
A365Q		0.743	0.718	-0.916	0.491
A365E	-0.162	-0.957	-0.64	-1.27	-0.873
A365R	-1.36	-0.516	-0.452	-0.55	-0.545
A365N	-0.682	-0.107	-0.411	0.487	-0.294
A365D	1.22	-0.29	-0.088	0.702	0.375
A365S	1.65	-0.35	1.72	-0.671	0.441

Variant	cAMP reporter score ([1]; pH 6)	cAMP reporter score ([1]; pH 6, modulator: ogerin)	cAMP reporter score ([1]; pH 6.5, modulator: ogerin)	surface expression score [2]	cAMP reporter score ([1]; pH 5.5)
A365I		-0.091	0.754	-0.11	-0.075
A365L	-0.15	-0.181	-0.243	0.208	-0.129
A365V	2.3	1.73	1.46	-0.306	1.72
A365W	-0.483	0.054	-0.37	-0.257	-0.075
A365T	0.395	0.688	0.783		1.22
A365F	0.105	0.437	0.65	-0.096	0.64
A365H		-0.298	0.29	-0.727	0.019
A365M	-1.53	-0.215	-0.796	-0.409	-0.446
Y47_L48insG	0.21	-2.15	-1.33	-2.21	
I154D		-0.661		-0.396	
I154Y				-0.402	
N54L	-2.53			-1.55	
N54H	0.062	-0.708	0.269		
F237_L238insG	-1.19	-0.657	-0.337		
P283A	-0.034	-0.658	-0.435		
P283I		-0.639	-1.34	-0.289	
E149K		-1.03	-0.432		
E149T			-0.426	-1.07	
E149W	0.644	-0.696	-0.459	-0.446	
E149N	2.3	-2.64	-1.03	-0.421	
G90S	1.08	0.266		0.48	
T64F	-0.938	-0.655			
T64H	6.19	1.59			
L135Q	-0.057	-0.669		-0.288	

Variant	cAMP reporter score ([1]; pH 6)	cAMP reporter score ([1]; pH 6, modulator: ogerin)	cAMP reporter score ([1]; pH 6.5, modulator: ogerin)	surface expression score [2]	cAMP reporter score ([1]; pH 5.5)
L135Y		-0.818	-1.16		
L135D	2.57				
L364S	0.518	0.495	0.919	2.76	1.32
L364R	0.54		0.107		1.32
L364M		0.355	1.14	0.493	0.656
L364I	0.163	1.27	1.04	1.53	0.986
L364K	0.026	0.591	0.361	-0.001	-0.253
L364Q	-1.01	0.188	0.251	-0.556	0.421
L364W	0.823	1.24	0.942	0.502	0.498
L364Y	-0.47	-0.3	0.141	0.208	0.038
L364N	0.678	-0.259	0.047	-0.019	0.246
L364T	0.96	-0.42	0.613	-0.051	0.215
L364V	1.59				-0.429
L364P	1.95	0.677	2.75		-0.021
Y59D	-1.32		-1.41	-2.31	
D259F				-0.405	
N54_E55del	-1.39	-2.37	-1.4	-2.96	
E326S				1.19	
T152Q				0.392	
T152V		-0.205	-1.61	-0.872	
T152P	-0.117				
T152K	-1.41	-2.27	-1.39	-3.18	
F76_W77del	-1.59			-1.09	
I50del	-1.17	-0.914	-0.73		

Variant	cAMP reporter score ([1]; pH 6)	cAMP reporter score ([1]; pH 6, modulator: ogerin)	cAMP reporter score ([1]; pH 6.5, modulator: ogerin)	surface expression score [2]	cAMP reporter score ([1]; pH 5.5)
V284R	-0.609		-1.51		
L82Q		-0.718	-0.434		
L202_A203del	-1.1	-0.728	-2.53	-2.26	
G140K	-0.559	-1.17	-0.229		
I99S		-1.33		-1.04	
I99F		-0.65			
I99C	-1.76	-0.823	-0.438	-1.47	
F45P		-1.49	-0.779	-3.16	
A267R	-0.506		-1.18		
A267Q		-0.332	-0.974		
F127D	-1.11	-4.65	-1.25	-0.804	
F127Q		-0.684			
A24R		-1.49	-2.48	-0.405	
S108_V109insGSG	-0.153	-1.72	-3	-1.32	
I208V	-0.396	0.712	-0.851	1.69	
I208N	-0.577		-1.98	-2.9	
P354Y	-0.887	-0.185	-0.968	0.101	
G110V	-0.824			-0.409	
G110S	3.43	0.482	-0.348	1.21	
G110R	-0.112	-0.678			
G110T				-1.14	
G110N	3.93	-0.087	2.42	-1.14	
G110C		-1.5	-0.433	-0.423	
P325_A327del	-0.055	0.204	0.201	0.649	

Variant	cAMP reporter score ([1]; pH 6)	cAMP reporter score ([1]; pH 6, modulator: ogerin)	cAMP reporter score ([1]; pH 6.5, modulator: ogerin)	surface expression score [2]	cAMP reporter score ([1]; pH 5.5)
F173R	-1.61	-1.22	-1.48	-1.52	
F173N		-0.477		0.424	
F173A	-1.82	-1.46			
D85Y		0.437			
L43G	-0.088	0.249	-0.058	-2.24	
I19del	-0.962	-2.31	-0.909	-1.64	
L23V	-0.093	0.828	0.489	0.55	
F129_H130insG	-0.432	-0.649	-1.03	-0.444	
Y106V			-0.432	-0.289	
A365del	-1.05	-0.756	-1.23	0.07	-0.885
A281_D282insG	-0.253	-0.723	-1.13	-2.11	
Q95_V96insGS	-0.475	-0.661	-0.833		
R295T	0.106	0.516	0.917	0.596	
I226H			-0.222	-0.508	
H175P	-1.48	-3.57	-1.78	0.829	
H175E		-3.08	-1.82	0.807	
H175C				-0.282	
H125P	-0.632		-0.452	-0.979	
H125M	1.1	-0.651	-0.167	-2.21	
L209del	-0.546	-1.57	-0.431		
V109_G110insGSG	-1.12		-1.63	-3.96	
R133_T134insG		-2.78	-1.51	-0.447	
S10_S12del		-0.719			
V264N			-1.08		

Variant	cAMP reporter score ([1]; pH 6)	cAMP reporter score ([1]; pH 6, modulator: ogerin)	cAMP reporter score ([1]; pH 6.5, modulator: ogerin)	surface expression score [2]	cAMP reporter score ([1]; pH 5.5)
A137L	-0.119				
A137Q	-0.047	-1.56	-0.332		
A137M		0.666	0.072	-0.59	
T233_V234del	-2.02		-0.857	-2.33	
H169C		0.399	0.214		
N266E	-1.02			0.128	
V235Y		-0.652	-0.431		
V235M		1.65	2.12	0.058	
T218M	-0.086	-0.914		-1.07	
T218R	-0.714	-0.955	0.274	0.477	
V123del		-1.09	-0.943	-2.18	
N86L	-0.823	-1.37		-0.807	
S73N	1.78		-0.547		
L121N	-0.178	-1.43	-1.32	-2.05	
L121T		-0.995	-0.427	-0.499	
H245G		-0.818	-0.467	-0.159	
H245F			-2.15	0.26	
R222V	3.01	1.56	3.21	0.346	
R222C	0.425	-0.292	0.117	-0.925	
R222K	0.633	1.11	1.1	0.449	
Q179del	-0.317	-0.871	-0.977	-2.17	
T233E	-0.89	-1.93	0.487		
T233K	-1.64	-0.683	-0.32	-1.65	
